# In the supplement of paper PMC8728848:
# The other results are listed elsewhere or left out.
# B1: GS7807P-bth-537-23-537 (Bacteroides thetaiotaomicron) (protein)
# chain: NYENINSNPYEAPDLSADGYALGSAMNNLAGCVVSPDVNTAQFTDCLLGGPLGGYFADSNAGFTETISNFNPKDDWSRVFLKSDKIIPTLYSNLTQVKLVSQNTNDPVPYAIAQVIKVAAMHRVTDAFGPIPYSQIGANGEIATPYDSQEVTYNTFFDELNAAIATLNENSNEQLVPTADYIYKGDVKKWIRFANSLKLRLAIRIAYANPVKAQQMAEEAVNPANGGVIESNADNATWNYFETSQNPIYVATRYNQVQTSDHGGVPCLTGGDTHAAADIICYMNGYKDNRREKFFTKSEWAGQDYVGMRRGIVIPELKTTGHKYSGVNIAPTSPLYWMNAAEVAFLRAEGQAVFNFSMGGTAESFYNQGIRLSFEQWGADGVEDYLKDDVNKPTAYTDPAGTNTYQNALSNITIKWNDSADKEEKQERIIVQKWIANWQLGNEAWADFRRTGYPKLIPVKENKSGGVVDSEKGARRMPYPLDEFVSNKANVEYAIANYLHGADNMATDVWWASKK
# Columns and labels:
# Experiment in all cases: glycan array binding signal (z-score within array); higher = stronger binding
# Conditions in all cases: glycan notation: IUPAC condensed, linker removed
# [1] = target: Gal(b1-3)GlcNAc(b1-3)Gal(b1-4)GlcNAc(b1-2)[Gal(b1-3)GlcNAc(b1-3)Gal(b1-4)GlcNAc(b1-6)]Man(a1-6)[Gal(b1-3)GlcNAc(b1-3)Gal(b1-4)GlcNAc(b1-2)Man(a1-3)]Man(b1-4)GlcNAc(b1-4)[Fuc(a1-6)]GlcNAc
# In short: (§1)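 Negative Z-scores can be read as non-binding. The Z-score is calculated within each array and then averaged across arrays of one protein sequence at different concentrations or buffers and across linkers. Arrays, 3228 in all, were curated from the Consortium for Functional Glycomics database and kept only where the protein sequence was available.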
# [2] = target: Gal(b1-3)GlcNAc(b1-3)Gal(b1-4)GlcNAc(b1-3)Gal(b1-4)GlcNAc(b1-2)[Gal(b1-3)GlcNAc(b1-3)Gal(b1-4)GlcNAc(b1-3)Gal(b1-4)GlcNAc(b1-6)]Man(a1-6)[Gal(b1-3)GlcNAc(b1-3)Gal(b1-4)GlcNAc(b1-3)Gal(b1-4)GlcNAc(b1-2)Man(a1-3)]Man(b1-4)GlcNAc(b1-4)[Fuc(a1-6)]GlcNAc
# In short: as §1
# [3] = target: Gal(b1-3)GlcNAc(b1-3)Gal(b1-4)GlcNAc(b1-6)[Gal(b1-3)GlcNAc(b1-3)]Gal(b1-4)Glc
# In short: as §1
# [4] = target: Gal(b1-3)GlcNAc(b1-3)Gal(b1-4)[Fuc(a1-3)]GlcNAc
# In short: as §1
# [5] = target: Gal(b1-3)GlcNAc(b1-3)Gal(b1-4)[Fuc(a1-3)]GlcNAc(b1-6)[Gal(b1-3)GlcNAc(b1-3)]Gal(b1-4)Glc
# In short: as §1
# [6] = target: Gal(b1-3)GlcNAc(b1-3)GalNAc
# In short: as §1
# [7] = target: Gal(b1-3)GlcNAc(b1-6)Gal(b1-4)GlcNAc
# In short: as §1
# [8] = target: Gal(b1-3)GlcNAc(b1-6)GalNAc
# In short: as §1
# [9] = target: Gal(b1-3)GlcNAc(b1-6)[Gal(b1-3)]GalNAc
# In short: as §1
# Gal(b1-3)GlcNAc6S = target: Gal(b1-3)GlcNAc6S
# In short: as §1
# [10] = target: Gal(b1-3)[Fuc(a1-4)]GlcNAc
# In short: as §1
# [11] = target: Gal(b1-3)[Fuc(a1-4)]GlcNAc(b1-2)Man
# In short: as §1
# [12] = target: Gal(b1-3)[Fuc(a1-4)]GlcNAc(b1-2)Man(a1-3)[Gal(b1-3)[Fuc(a1-4)]GlcNAc(b1-2)Man(a1-6)]Man(b1-4)GlcNAc(b1-4)[Fuc(a1-6)]GlcNAc
# In short: as §1
# [13] = target: Gal(b1-3)[Fuc(a1-4)]GlcNAc(b1-3)Gal(b1-3)[Fuc(a1-4)]GlcNAc
# In short: as §1
# [14] = target: Gal(b1-3)[Fuc(a1-4)]GlcNAc(b1-3)Gal(b1-4)[Fuc(a1-3)]GlcNAc
# In short: as §1
# [15] = target: Gal(b1-3)[Fuc(a1-4)]GlcNAc(b1-6)GalNAc
# In short: as §1
# [16] = target: Gal(b1-3)[GlcNAc(b1-6)]GalNAc
# In short: as §1
# [17] = target: Gal(b1-3)[Neu5Ac(a2-6)]GalNAc
# In short: as §1
# [18] = target: Gal(b1-3)[Neu5Ac(a2-6)]GlcNAc(b1-4)Gal(b1-4)Glc
# In short: as §1
# [19] = target: Gal(b1-3)[Neu5Ac(b2-6)]GalNAc
# In short: as §1
# Gal(b1-4)Gal = target: Gal(b1-4)Gal
# In short: as §1
# [20] = target: Gal(b1-4)GalNAc(a1-3)[Fuc(a1-2)]Gal(b1-4)GlcNAc
# In short: as §1
# [21] = target: Gal(b1-4)GalNAc(b1-3)[Fuc(a1-2)]Gal(b1-4)GlcNAc
# In short: as §1
# Gal(b1-4)Glc = target: Gal(b1-4)Glc
# In short: as §1
# Gal(b1-4)Glc6S = target: Gal(b1-4)Glc6S
# In short: as §1
# Gal(b1-4)GlcNAc = target: Gal(b1-4)GlcNAc
# In short: as §1
# [22] = target: Gal(b1-4)GlcNAc(a1-6)Gal(b1-4)GlcNAc
# In short: as §1
# Gal(b1-4)GlcNAc(b1-2)Man = target: Gal(b1-4)GlcNAc(b1-2)Man
# In short: as §1
# [23] = target: Gal(b1-4)GlcNAc(b1-2)Man(a1-3)Man(b1-4)GlcNAc(b1-4)GlcNAc
# In short: as §1
# [24] = target: Gal(b1-4)GlcNAc(b1-2)Man(a1-3)[Gal(b1-4)GlcNAc(b1-2)Man(a1-6)]Man(b1-4)GlcNAc(b1-4)GlcNAc
# In short: as §1
# [25] = target: Gal(b1-4)GlcNAc(b1-2)Man(a1-3)[Gal(b1-4)GlcNAc(b1-2)Man(a1-6)]Man(b1-4)GlcNAc(b1-4)[Fuc(a1-6)]GlcNAc
# In short: as §1
# [26] = target: Gal(b1-4)GlcNAc(b1-2)Man(a1-3)[Gal(b1-4)GlcNAc(b1-2)Man(a1-6)][Gal(b1-4)GlcNAc(b1-4)]Man(b1-4)GlcNAc(b1-4)[Fuc(a1-6)]GlcNAc
# In short: as §1
# [27] = target: Gal(b1-4)GlcNAc(b1-2)Man(a1-3)[Gal(b1-4)GlcNAc(b1-2)Man(a1-6)][GlcNAc(b1-4)]Man(b1-4)GlcNAc(b1-4)[Fuc(a1-6)]GlcNAc
# In short: as §1
# [28] = target: Gal(b1-4)GlcNAc(b1-2)Man(a1-3)[GlcNAc(b1-2)Man(a1-6)]Man(b1-4)GlcNAc(b1-4)GlcNAc
# In short: as §1
# [29] = target: Gal(b1-4)GlcNAc(b1-2)Man(a1-3)[GlcNAc(b1-4)][Gal(b1-4)GlcNAc(b1-2)Man(a1-6)]Man(b1-4)GlcNAc(b1-4)GlcNAc
# In short: as §1
# [30] = target: Gal(b1-4)GlcNAc(b1-2)Man(a1-3)[Man(a1-6)]Man(b1-4)GlcNAc(b1-4)GlcNAc
# In short: as §1
# [31] = target: Gal(b1-4)GlcNAc(b1-2)Man(a1-6)Man(b1-4)GlcNAc(b1-4)GlcNAc
# In short: as §1
# [32] = target: Gal(b1-4)GlcNAc(b1-2)Man(a1-6)[GlcNAc(b1-2)Man(a1-3)]Man(b1-4)GlcNAc(b1-4)GlcNAc
# In short: as §1
binder,measurement,setting,value
B1,glycan array binding signal (z-score),[1],1.47
same,glycan array binding signal (z-score),[2],0.224
same,glycan array binding signal (z-score),[3],-0.261
same,glycan array binding signal (z-score),[4],-0.051
same,glycan array binding signal (z-score),[5],1.1
same,glycan array binding signal (z-score),[6],1.12
same,glycan array binding signal (z-score),[7],-0.152
same,glycan array binding signal (z-score),[8],1.42
same,glycan array binding signal (z-score),[9],0.214
same,glycan array binding signal (z-score),Gal(b1-3)GlcNAc6S,0.073
same,glycan array binding signal (z-score),[10],-0.295
same,glycan array binding signal (z-score),[11],0.354
same,glycan array binding signal (z-score),[12],0.989
same,glycan array binding signal (z-score),[13],-0.304
same,glycan array binding signal (z-score),[14],-0.372
same,glycan array binding signal (z-score),[15],1.8
same,glycan array binding signal (z-score),[16],-0.029
same,glycan array binding signal (z-score),[17],-0.29
same,glycan array binding signal (z-score),[18],0.182
same,glycan array binding signal (z-score),[19],0.133
same,glycan array binding signal (z-score),Gal(b1-4)Gal,0.593
same,glycan array binding signal (z-score),[20],-0.108
same,glycan array binding signal (z-score),[21],-0.339
same,glycan array binding signal (z-score),Gal(b1-4)Glc,-0.384
same,glycan array binding signal (z-score),Gal(b1-4)Glc6S,0.91
same,glycan array binding signal (z-score),Gal(b1-4)GlcNAc,0.123
same,glycan array binding signal (z-score),[22],-0.34
same,glycan array binding signal (z-score),Gal(b1-4)GlcNAc(b1-2)Man,-0.348
same,glycan array binding signal (z-score),[23],0.315
same,glycan array binding signal (z-score),[24],0.253
same,glycan array binding signal (z-score),[25],0.759
same,glycan array binding signal (z-score),[26],1.49
same,glycan array binding signal (z-score),[27],0.148
same,glycan array binding signal (z-score),[28],-0.348
same,glycan array binding signal (z-score),[29],1.4
same,glycan array binding signal (z-score),[30],-0.199
same,glycan array binding signal (z-score),[31],-0.307
same,glycan array binding signal (z-score),[32],-0.202
